These results are taken from PubChem BioAssay AID1508624 (National Center for Advancing Translational Sciences (NCATS), 2021).

The structures appear in SMILES notation. Hit rate of the full screen: of about 48,000 compounds, about 120 (0.25%) were called active. Inconclusive results (about 4%) are left out. Calls come from the whole dose curve; as a rule, active = well fitted activation curve with a large enough effect; inconclusive = small, poorly fitted or top-dose-only effect, or another doubt; inactive = no such curve, though single readings can be large or run the other way. This is one part of the list.

The assay can be described thus: Primary qHTS for Identification of Small Molecule Activators of Huntingtin-Antisense Promoter Activity. Note: nearly all actives have a fitted effect of over 55% in size. The settings on record: HEK293 HTT-AS promoter firefly luciferase reporter, 24 h; series mostly up to 57.5 µM; activity change, positive = activation: at the top concentration. The gist of the method:
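Quantitative HTS used concentration series of up to 57.5 uM final on HEK293 luciferase reporter cells, 24 h at 37 degrees C. Readout was Dual-Glo firefly luminescence.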
For orientation: In qHTS, concentration-response curves come from the screen itself.
Turning to `Cc1cc2c(cc1NC(=O)c1ccc(C(C)(C)C)cc1)n(C)c(=O)c(=O)n2C`, the “activity change, positive = activation” value was inactive: -20.5%.
With `CCOc1ccccc1CNC(=O)c1nn(C)c2c1CS(=O)(=O)c1ccccc1-2` the figure was inactive: -23%; with `COc1ccc(Cl)cc1NC(=O)CSc1nnc(C)n2c1cc1occc12`, inactive: -6.41%; with `Cc1ccc(CCNC(=O)CN2C(=O)COc3ccc(S(=O)(=O)N4CCC(C)CC4)cc32)cc1`, inactive: -25.2%.
Next, `CCN1CCN(C(c2cccc(Cl)c2)c2c(O)cc(C)n(CCOC)c2=O)CC1` (configuration not stated): inactive: -2.29%; `Cc1cc(OCC(=O)NCC2(N(C)C)CCCCC2)cc(C)c1Cl`: inactive: -3.56%.
`COc1cccc(C2=NS(=O)(=O)N(C)C(C(=O)Nc3cccc(O)c3)=C2)c1`: the “activity change, positive = activation” value was inactive: -23.3%.
With `Cc1ccc(-c2nnc(SCC(=O)NCCC(C)C)nc2-c2ccc(C)cc2)cc1` the figure was inactive: -36.5%; with `CCn1cc(C(=O)NCCCN(CC(C)C)CC(C)C)c(=O)c2cc(S(=O)(=O)N3CCc4ccccc4C3)ccc21`, inactive: -5.33%; with `Cc1cc(NC(=O)C2CCCN(S(=O)(=O)c3ccc(Br)s3)C2)ccc1Br` (configuration not stated), inactive: -31%.
Next, `COc1ccc(CC(=O)Nc2ccc(-c3nc4ccccc4s3)cc2Cl)cc1`: inactive: -13.7%; `O=C(NCc1ccccc1)C(=O)NCC(c1ccco1)S(=O)(=O)c1ccccc1` (configuration not stated): inactive: -10.8%; `COc1ccc(N2CCN(C(CNC(=O)C(=O)NCc3ccc(F)cc3)c3cccnc3)CC2)cc1` (configuration not stated): inactive: -16.8%.
Next, `N=C1SC(=Cc2ccc(-c3ccc4c(c3)C(=O)NC4=O)o2)C(=O)N1c1ccc(Br)cc1`: inactive: 2.04%; `CCCCN1C(=O)C(O)(c2c(C)[nH]c3ccccc23)c2cc(Br)ccc21` (configuration not stated): inactive: -26.9%; `CCCN(CCC)c1nn2c(=O)c(C(=O)NCc3cccc(OC)c3)cnc2s1`: inactive: -23.1%.
In the case of `Oc1ccc(C2CNCCc3c2cc(O)c(O)c3Cl)cc1` (configuration not stated), the activity change, positive = activation result is “inactive”.
Next, `Cc1ccccc1NC(=O)Cn1c(=O)n(CCCCC(=O)NCc2ccccc2Cl)c(=O)c2ccccc21`: inactive: -15.7%; `O=C(CN1C(=O)COc2ccc(S(=O)(=O)Nc3ccccc3)cc21)NCc1ccccc1Cl`: inactive: -10.6%.
Next, `CCOC(=O)c1c(S(=O)(=O)N2CCC(C(=O)Nc3cccc(C#N)c3)CC2)c(C)n(C)c1C`: inactive: 2.62%; `Cc1c(C(=O)OC2CCCCCC2)[nH]c2c1C(=O)CC(c1ccccc1Cl)C2` (configuration not stated): inactive: -33.6%; `CCN(CC)S(=O)(=O)c1ccc(C(=O)NC2CC(=O)N(c3ccc4c(c3)OCCO4)C2)cc1` (configuration not stated): inactive: -11.3%.
With `CCOC(=O)c1ccc(N2C(=O)c3[nH]nc(-c4ccccc4)c3C2c2cccs2)cc1` (configuration not stated) the figure was inactive: -62.8%; with `COc1ccc(CCNc2nc(SCc3ccccc3Cl)nc3ccccc23)cc1OC`, inactive: -6.31%.
On to `O=C(CSc1nc2c(c(=O)[nH]1)CN(Cc1ccc(F)cc1)CC2)Nc1cccc(C(F)(F)F)c1`, for which the “activity change, positive = activation” value was inactive: -38.9%.
Next, `Cc1cc(C)nc(-n2nc(C)c3c2NC(=O)CC3c2ccccc2OC(C)C)n1` (configuration not stated): inactive: -23.5%; `COc1ccc(NC(=O)Cn2c(=O)n(CCc3ccccc3)c(=O)c3sc4ccccc4c32)cc1`: inactive: 26.6%; `CCC1CN(C(=O)NCc2cccc(OC)c2)c2ccccc2O1` (configuration not stated): inactive: -12.7%.
Turning to `COc1ccc(-c2[nH]c(-c3ccccc3)nc2SCC(=O)NC2CCCC2)cc1`, the “activity change, positive = activation” value is inactive: -22.5%.
With `COc1ccc(CCNC(=O)c2cc3c(=O)n(C)c4cc(Cl)ccc4c3s2)cc1OC` the figure was inactive: -15.7%; with `COc1ccc(-c2cc(NCc3ccc(C)cc3)n3cnnc3n2)cc1`, inactive: -31.5%; with `CCN1C(=O)c2ccccc2Sc2ccc(NC(=O)Nc3ccc(Br)c(C)c3)cc21`, inactive: -43.4%.
With `O=S1(=O)c2ccccc2N(Cc2ccccc2Cl)c2ccccc21` the figure was inactive: -19%; with `CC(C(=O)O)c1cccc(Oc2ccccc2)c1` (configuration not stated), inactive: 1.71%; with `Cc1ccc(-c2ccc(=O)n(CC(=O)NC(C)c3ccccc3)n2)cc1` (configuration not stated), inactive: -2.41%.
Take `O=C(c1ccc2c(c1)N(Cc1ccccc1F)C(=O)c1ccccc1S2(=O)=O)N1CCCCCC1`: the “activity change, positive = activation” value is inactive: -28.2%.
As for `CCCNC(=O)c1cc2n(n1)CCCN(Cc1ccc(F)cc1)C2=O`, the “activity change, positive = activation” value is inactive: -12%.
Next, `COc1cccc(C(=O)c2sc(Nc3ccc(C)cc3C)c(S(=O)(=O)c3ccccc3)c2N)c1`: inactive: -22.7%.
With `C[C@@H]1CN(CCCn2c3ccccc3c3ccccc32)C[C@H](C)N1` the figure was inactive: -24.2%; with `CCOc1ccc(CCNC(=O)c2ccc(Cn3c(=O)c4cccn4c4cccnc43)cc2)cc1`, inactive: -49.5%.
With `COc1ccc(-c2csc3ncnc(Nc4ccc(OC)c(OC)c4)c23)cc1` the figure was inactive: -20%.
As for `CC(C)=CCOc1ccc(/C=C/C(=O)c2ccc(OCC=C(C)C)cc2OCC(=O)O)cc1`, the “activity change, positive = activation” value is inactive: -14.3%.
With `CCOC(=O)c1sc(N2C(=O)c3oc4ccc(F)cc4c(=O)c3C2c2cccc(OC)c2)nc1C` (configuration not stated) the figure was inactive: -9.8%; with `Cc1cc(N2CCCCC2)nc2ccc(NC(=O)CCC(=O)N3CCN(c4cccc(Cl)c4)CC3)cc12`, inactive: -8.02%; with `CCN(C(=O)Cn1c(SCc2ccccc2F)nc2cccnc21)c1ccccc1`, inactive: 6.29%.
Take `O=C(CSCc1nc2cccnc2n1C1CCCCC1)NCc1cccc(Br)c1`: the “activity change, positive = activation” value is inactive: -19.5%.
Consider `O=C(OCc1ccccc1)c1ccc(-c2nnn(Cc3ccccc3F)n2)cc1`, for which the “activity change, positive = activation” value is inactive: -7.42%.
With `Cc1ccc2scc(N3CCN(c4ccccc4)CC3)c(=O)c2c1` the figure was inactive: 0.105%; with `CCOc1ccc(CCNC(=O)c2ccc3[nH]c(C)c(C)c3c2)cc1`, inactive: -19.1%.
With `CCCCC(=O)NC1(C(F)(F)F)C(=O)Nc2c1c(=O)[nH]c(=O)n2-c1ccc(F)cc1` (configuration not stated) the figure was inactive: -19.4%.
With `Cc1ccc(C)c(NC(=O)C2CCCN(S(=O)(=O)c3cccc4nsnc34)C2)c1` (configuration not stated), the “activity change, positive = activation” value is inactive: -14.6%.
Take `COc1cc(Cl)c(NS(=O)(=O)c2ccc3[nH]c(=O)ccc3c2)c(OC)c1`: the “activity change, positive = activation” value is inactive: -22.3%.
With `CCC1CCCCN1C(=O)Cn1c(=O)n(-c2ccccc2C(F)(F)F)c(=O)c2c(C)c(C(=O)N(C)C)sc21` (configuration not stated) the figure was inactive: 0.893%; with `CCOc1ccc(NC(=O)C(CC)n2nc(-c3ccc(C)c(C)c3)ccc2=O)cc1` (configuration not stated), inactive: -16.7%.
Next, `CCOc1ccc(OCC)c(NC(=O)CN(c2ccc(C)cc2)S(=O)(=O)c2c(C)n[nH]c2C)c1`: inactive: -24%; `COc1ccc(C2CC(=O)c3c([nH]c(C(=O)OC4CCCC4)c3C)C2)cc1OC` (configuration not stated): inactive: -24.1%; `COc1ccccc1N1CCN(C(c2ccccc2)c2nnc(-c3ccccc3Cl)o2)CC1` (configuration not stated): inactive: -14.1%.
With `Cc1ccc(NC(=O)Cn2c(=O)n(Cc3nc(-c4ccccc4)no3)c(=O)c3cc4c(cc32)OCO4)cc1C` the figure was inactive: -4.15%; with `COC(=O)c1ccccc1NC(=O)CSc1nc2sc3c(c2c(=O)[nH]1)CCCC3`, inactive: -11.4%.
For `O=C(CN1C(=O)C2CCCCN2c2ccc(C(=O)N3CCCC3)cc21)NCc1ccccc1` (configuration not stated), the “activity change, positive = activation” value is inactive: -18.4%.
With `O=C1OC(c2ccc(O)cc2)(c2ccc(O)cc2)c2ccccc21` the figure was inactive: -44.7%; with `COCCCNC(=O)Cn1c(=O)n(-c2cccc(C)c2)c(=O)c2c3c(sc21)CN(C(C)=O)CC3`, inactive: -19%; with `CON=C(C(=O)N[C@@H]1C(=O)N2C(C(=O)O)=C(CSC(=O)c3ccco3)CS[C@H]12)c1csc(N)n1`, inactive: -4.85%.
Next, `COc1ccc(-c2cc(C(F)(F)F)nc(S(=O)(=O)CCCC(=O)Nc3ccccc3C(F)(F)F)n2)cc1OC`: inactive: -93.7%; `COc1ccccc1CNc1nc(-c2ccco2)nn1C(=O)c1ccccc1[N+](=O)[O-]`: inactive: 19%.
With `COc1cc(C(=S)N2CCOCC2)ccc1O` the figure was inactive: -18.1%.
In the case of `CCCCn1c(CCNC(=O)c2ccc(F)cc2)nc2ccccc21`, the “activity change, positive = activation” value was inactive: -21.1%.
Next, `COc1cccc(CNC(=O)Cn2cc3c(n2)-c2c(oc(C(=O)N4CCOCC4)c2C)CC3)c1`: inactive: -24.6%; `COc1ccc(S(=O)(=O)N2Cc3ccccc3CC2C(=O)Nc2cccc(C)c2)cc1OC` (configuration not stated): inactive: 5.74% [at 11.5 µM, percent change from vehicle, -100% = no light]; `CC1(C)S[C@H]2[C@H](NC(=O)[C@@H](N)c3ccc(O)cc3)C(=O)N2[C@@H]1C(=O)O`: inactive: -0.0477%.
With `CCc1cccc(C)c1NC(=O)C1CCCN(S(=O)(=O)c2cccc3nsnc23)C1` (configuration not stated) the figure was inactive: -16.9%; with `CCN(C(=O)CSc1nnc(-c2ccc(Cl)cc2)o1)c1ccccc1`, inactive: -8.94%; with `CCOc1ccc2ncc3c(-c4ccccc4)nn(CC(=O)Nc4cccc(F)c4)c3c2c1`, inactive: 0.131%.
As to `Cc1ccc(C)c(N2CCN(CCCNC(=O)Cn3c(-c4cccs4)cc4ccccc43)CC2)c1`, the “activity change, positive = activation” value is inactive: -39.7%.
With `O=C(CSc1nc2c(c(=O)[nH]1)CCCC2)Nc1cccc(O)c1` the figure was inactive: -0.972%; with `CCCn1cc(S(=O)(=O)c2cccc(Cl)c2)c(=O)c2cc(F)c(N3CCN(CC)CC3)cc21`, inactive: -6.8%.
With `COc1cc2[nH]c(=O)n(CCCC(=O)NCc3ccccc3Cl)c(=O)c2cc1OC` the figure was inactive: -13.9%; with `Cc1cc(OCCn2c(C3CC(=O)N(Cc4ccc(F)cc4)C3)nc3ccccc32)ccc1Cl` (configuration not stated), inactive: -57.3%; with `COCCCNC(=O)C1CCN(c2nnc(-n3cccc3CNc3ccc(C)cc3)s2)CC1`, inactive: -22.5%.
Next, `COCCCn1c(=N)c(S(=O)(=O)c2ccccc2)cc2c(=O)n3cccc(C)c3nc21`: inactive: 2.86%; `Cc1cc(Nc2cc(NC(=O)c3c(Cl)cccc3Cl)ccn2)nc(N)n1`: inactive: -12.5%.
As for `CC1(C)CC(=O)c2cc(C(=O)Nc3ccc(Br)cc3)c(=O)n(-c3ccc(Cl)cc3)c2C1`, the “activity change, positive = activation” value is inactive: -3.59%.
`CCn1cc2nc(SCc3cc(C)ccc3C)n(Cc3ccc(C)cc3)c(=O)c2n1`: the “activity change, positive = activation” value is inactive: -3.7%.
With `COCCOc1nc(-c2ccc(Cl)c(Cl)c2)n(-c2ccc(NC(=O)CCl)cc2)n1` the figure was inactive: -15.8%; with `Cc1oc(-c2ccccc2F)nc1Cn1c(SCc2ccccc2F)nc2ccncc21`, inactive: -13.6%; with `Cc1ccccc1OCc1nc2c3cnn(-c4ccccc4Br)c3ncn2n1`, inactive: 1.96%.
Next, `Cc1ccc(C2c3cccn3CCN2S(=O)(=O)c2ccc([N+](=O)[O-])cc2)cc1` (configuration not stated): inactive: -29.3%; `COc1ccc(/C=N/NC(=O)c2ccncc2)cc1OC`: inactive: -7.25%.
With `COC(=O)c1ccc(CSc2nc3c([nH]c4ccccc43)c(=O)n2-c2cccc(OC)c2)o1` the figure was inactive: -33.7%.
With `Cc1ccnc(NS(=O)(=O)c2ccc(NC(=O)c3cc(=O)c4ccc(C)c(C)c4o3)cc2)n1`, the “activity change, positive = activation” value is inactive: -3.22%.
Next, `COc1ccc(CNC(=O)c2cc3c(=O)n(Cc4cccs4)ccc3nc2C)cc1`: inactive: -24.6%.
Next, `CCOC(=O)c1sc(NC(=O)c2nc(SCC)ncc2Cl)c(C(=O)OCC)c1C`: inactive: 13.7%.
